Test results published in the supplement of paper PMC3334620.
In all, about 33,000 sequences were measured (“E-score (-0.5 to 0.5)”: median about -0.056, highest 2% from about 0.38 on). This is one part of the list.

The sequences below were run against Stb4 (UniProt P50104) (assay: PBM E-score (8-mer binding enrichment) (E-score (-0.5 to 0.5)); higher = stronger / more preferred TF binding; most listed sequences are background and not binding sites). Conditions: protein concentration: 200 nM; construct: GST-DNA-binding domain.
In short: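 Universal all-10-mer Agilent arrays, double-stranded by primer extension on fresh or once-stripped slides, were probed with about 100-200 nM GST-tagged yeast transcription factors made by PURExpress. Fluorescent anti-GST detected bound protein, and masliner normalised the scans. E-scores from the Universal PBM Analysis Suite were given to each ungapped eight-base word pooled with its reverse complement.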

Sequence	PBM E-score
ACGATGCT	-0.0738
CCCCTAAG	-0.195
GAATTGGA	-0.05
CGTTGCCC	-0.0386
CATGAACC	0.136
CACGTAGC	-0.259
TGACTCCA	-0.326
TTAATAAA	0.123
AACCGCGT	0.11
CTAGGAGA	-0.223
CACGTTCG	0.0411
ATACAAAC	0.0662
ATAGGCCG	0.122
CACAGGTC	-0.152
GTACTTAA	-0.176
AACGAACA	0.135
GGCGCCGA	0.317
AGCCTGCC	-0.0282
TCCAAAAA	0.0234
CAACGTCA	-0.0925
GAGACCGA	0.222
GTAATGGA	-0.0497
GACCATGC	0.00952
AAGACTTC	-0.0792
CCGTCAGG	0.025

Sequence	PBM E-score
CCGATACG	0.307
ACTCCTGG	-0.243
AGTGGTGC	0.0506
AGGTGAGC	-0.145
ACCCCCTG	-0.244
GCCTGACC	-0.162
AGTGACCG	0.0828
GCCTAGGC	-0.221
ACGTCTAG	-0.155
CCTGGCTC	-0.141
ACTCACGG	0.163
CCGACGAA	0.333
CAGTAAGA	-0.133
ACCGTGGA	0.0746
CGCGTGGA	-0.199
CGTGGCAG	-0.212
GTTAGGGA	-0.176
ATGACGAC	0.0312
GTCAACCA	-0.143
CGTCATTA	-0.11
CGTTTATC	0.0105
ATCATCCC	0.052
AACCAACA	-0.0899
ACTAAACA	-0.243
ATAGTGGG	0.0744

Sequence	PBM E-score
ACCACGCG	-0.102
AGAGAGCT	-0.238
CCAGGCCG	0.0556
CGCACATA	-0.185
CAAAAGGA	-0.068
AGTTGGGG	-0.0708
ATTCAAGA	0.0992
GACGAACA	0.0847
CGCTAGTC	-0.265
GGCAGAAA	0.172
GTCCTCAC	-0.103
AAGTACAC	-0.143
CTCGTCTA	-0.198
AACGGCTA	0.16
ATAGGCCC	0.065
AAGCAATA	-0.153
ACATTAAC	-0.0715
CTCCTTAC	-0.111
AGCGTCCT	-0.32
AGTTCCGC	0.324
ACGAGGAT	-0.283
GTTTTTCA	0.0393
ATCGCATA	-0.0126
GAAAACCA	-0.0221
ATGGGATA	-0.14

Sequence	PBM E-score
ATCCAAAT	-0.0303
TGACTCAA	-0.149
CCCTCTTC	-0.254
ATTCCCAA	-0.115
GCGGGCCC	0.102
GGTCCTTA	0.00441
AGATTCCG	0.389
ACTGCTCA	-0.0464
ACAGCCGG	0.35
ACCAAGCA	-0.101
CATATTAA	-0.111
CCATTTTC	-0.0108
AGTTATGC	0.011
ACCGCCTA	-0.0476
ACAGCACC	0.0374
GGTTTGGA	-0.0921
AGTTATAA	-0.137
ATGTCGTG	-0.217
CGCATGTA	-0.0158
CGTACAAG	-0.0603
CTAATTCA	-0.231
ACTGTTAC	-0.0793
AAGCTCGA	0.0225
ATGTCTGA	-0.082
CAGTGAAA	0.103

Sequence	PBM E-score
ATCCAGCA	-0.289
GCGTATAC	0.0318
GGTCAGCA	0.0977
CCGCATAC	0.103
AGGAGAAC	-0.179
CGTTGTAC	-0.235
ATGGAGTA	0.0161
GTGAGGGA	-0.209
TAAGCACA	-0.0266
GTCCTCAA	-0.105
AATTCTGA	-0.159
CGGGTCCC	0.19
GACGCGGA	0.265
CAACGTCG	0.11
ATCCCATG	-0.18
ATGTGCTC	-0.0759
CTCAAGGC	0.065
ATACACTC	0.144
CCCGGGCC	0.312
ATGTGGCG	0.00435
GTGTATAA	-0.247
GCCCTCGC	-0.141
CCGACTGA	0.24
AATAGGGT	-0.0319
CCGACGCC	0.343

Sequence	PBM E-score
CACACTCA	-0.126
AGCCTCCC	-0.112
ATACACTA	-0.184
ACACAAAG	-0.11
CCGCACAC	0.0462
CAAATCAA	-0.202
CAAGTATG	-0.31
TCGAGCGA	-0.205
CCTGATTA	-0.0882
AGATCGGA	0.438
ACAGTACA	-0.0304
AATTGTCC	0.0336
CAGATATA	-0.181
CACGCTCC	-0.0234
CGAATCCG	0.354
AGCCTTTC	-0.0737
GAAGTCAA	-0.084
ATTCAACA	-0.0716
AATCCTTA	-0.0563
CCTTTAAC	0.118
CCCCCCCG	-0.164
ATTCGCGA	-0.154
ATAGTCAT	-0.027
AAAAGCCT	-0.257
CGCCGGCA	0.261

Sequence	PBM E-score
CAAAGGCC	-0.0914
ACGGGCCA	0.015
GACTGTGC	-0.166
CCCCTGCG	-0.165
CCGACCCA	0.32
CTTGAGGC	-0.17
AACAGTAC	-0.0138
ACGCTGGC	-0.131
AAGTACGC	-0.164
ATTGTACA	-0.0234
TTATGCAA	-0.214
ACTGAACG	-0.259
GTGACAGA	-0.0746
AGACAGTG	-0.106
AGAATTCT	0.0793
CCTGTCGC	-0.121
ATGTCTGG	0.0541
AGGGAATG	-0.118
AGACTTTA	-0.186
AGCACAGA	-0.121
GAAATCTA	0.0604
GAATAGCA	-0.207
GTAGTTTA	0.0229
CCTTTTTC	0.0967
GAAACGAC	-0.0855

Sequence	PBM E-score
ACCCCGTA	-0.0633
AAAAAAAC	0.0136
ACCTAACA	0.00411
CAAGGACG	-0.191
ACTTGAGG	-0.153
GCTGCACA	-0.125
CAAGCGGG	0.0934
AACTACTT	-0.0554
GGGGTCAC	0.0106
AGAGGAGA	-0.198
CAACGAAC	-0.158
AGAAATTA	0.0316
CTGCCGGC	0.281
GTGGAACA	-0.0512
CTACCTAC	0.0142
CACAGGTA	-0.126
ACCCTTCA	-0.108
CCTTATAG	-0.26
CCATATCG	0.0884
ACTAAGCC	0.0762
TAGATTGA	0.159
GAAACAGA	-0.0644
TACCCACA	-0.0436
TCTCCCCA	-0.0746
CAATAACC	0.182

Sequence	PBM E-score
ATGCCGGA	0.366
TAAGGGTA	-0.235
GGCCGGTA	0.18
CCGGCTCA	0.247
ATGCCGAG	0.423
ATGCAATC	-0.0379
ATTCCAAT	-0.192
AAGGCGCG	-0.203
CACACGAA	-0.195
CTTCTTTA	-0.0675
AAACCCGC	0.246
ATGGACTA	-0.197
CGTATGAA	0.0196
ACAGACTA	-0.124
ACCAGAAG	-0.213
TGGTTACA	-0.164
ATACCTTC	-0.103
CAGGCCGC	-0.0516
GTAAATTA	-0.0172
ACCTTCAG	-0.168
ATCTTCAG	-0.00891
GTGTGGCA	-0.0783
ATTTCCGG	0.426
AAATTGGT	0.0302
ACGTGGGC	-0.277

Sequence	PBM E-score
GCAGGCTA	-0.102
CTGCCGGA	0.343
CACCTTGG	-0.0774
ATGGCTTC	-0.161
ACTGAGAC	-0.283
ATTACGCC	-0.07
CGGGTGGA	0.256
TCGGTTAA	0.44
AAATATCC	0.305
ACGCCGAC	0.272
CTGCGAGC	-0.126
ATCTGTCA	0.037
AACCGAAT	0.325
CTCGATTC	-0.0249
GCAAGTAA	-0.0627
TATGCACA	-0.0462
GGCGCGTA	0.097
GATATTCC	0.265
CGCATATA	-0.0363
CCCCCCTA	-0.178
TCCTAGGA	-0.093
ACTTTACC	0.124
TGGGATAA	-0.182
ATGATTCC	0.17
GAGTCGAA	0.121

Sequence	PBM E-score
AGTCAAAA	-0.115
CTTCAGGA	0.074
ACACTTCA	0.022
CCAGCATA	-0.278
ATCGGTCC	0.169
CCTGATAG	-0.17
AGAGCTCG	0.175
GTCTCGGA	0.442
AGGCTTGC	-0.327
AAGAGCAA	-0.153
ACATCGGT	0.144
CGCTAAAA	-0.162
GTGCGCAC	0.236
CCCATAGA	-0.255
ACCGCCAG	-0.0546
GAAAGTAA	0.0859
AAGTGACG	-0.0102
GTTCTATA	-0.173
AGATCAGG	-0.0568
CTTGACCC	-0.0581
AGCGTCAC	-0.0735
CTTCATGC	-0.0601
AATGACAT	-0.0231
CATTGAAC	0.0414
ACCTCAAG	-0.227

Sequence	PBM E-score
TAAAGTAA	-0.189
AGCACGGG	0.121
ACGTGCCG	0.278
CAATAGAG	-0.315
CATACCTA	0.0497
AGAAGGTC	-0.231
GGAGCAGA	0.0128
AGAAGTAT	-0.134
CGCGTAGA	-0.11
ACCGAAGG	0.243
GAGGTGGA	0.0823
GCCGAGGA	0.4
TCGTGACA	0.0104
CCCCCGGG	0.214
GGGTCCAC	-0.0879
AACTCGGC	0.364
ACTGCAGA	-0.0926
CTGCGGAC	-0.0984
CTAGTTAA	-0.122
ACCACAGC	-0.0656
CTGGAAAA	-0.00258
TACTAAGA	-0.027
CGAGTCCG	0.251
AAGACTGG	-0.0599
CGACAGAG	-0.101

Sequence	PBM E-score
TGGAGCCA	-0.26
CCTCGTCG	0.0651
CAGGGGTC	-0.16
AGATAGGC	-0.155
TAAACCAA	-0.137
ATTTACTC	-0.168
AGCGTAAT	-0.107
CGGCTGCC	0.269
GATTTAGC	0.0709
TCCAGTCA	-0.0411
AGGATGTG	-0.0659
ACGGGCCG	0.277
CCAACGGG	0.165
CGGTATCA	0.164
AGAACATG	-0.0757
GACGTCCC	-0.0179
AGGTCGGA	0.345
CATGTATC	-0.143
TGCTTAAA	-0.0827
GCCCTTCA	-0.158
ATCCACAG	-0.177
ATTATGAG	-0.0617
AAAGTTGT	0.00681
AACGAGGC	-0.13
AGTCTTCA	-0.237

Sequence	PBM E-score
AGTAGGGG	0.0719
GAGCAACC	0.0935
GGCTGTGA	-0.116
CGAACGGC	0.18
ATTGAATA	0.0122
ATTAGACG	-0.109
CTTCGGCC	0.218
ATAGACAT	-0.258
GCATGACA	-0.289
GGAGACCC	0.0398
GATTGCCA	-0.038
CTGCGTTA	-0.122
AACCAAAT	0.116
TCTGGGAA	-0.208
AGCTACCT	-0.0284
ACTCGTCG	-0.126
TATTTTCA	-0.0408
ATTGCGAG	-0.0368
AATCGACA	0.0906
